# Test results from PubChem BioAssay AID924 (National Center for Advancing Translational Sciences (NCATS), 2007).
# Out of some 130,000 compounds screened, about 1,200 (0.92%) were called active. The shares of active, inactive and inconclusive entries below differ from those in the screen. The call rests on the fitted dose curve; in most records, active means well fitted cell-killing curve with a large enough effect; inconclusive means small, poorly fitted or top-dose-only effect; inactive means no such curve, though single readings can be large or run the other way. Potencies beside an inconclusive call are fits to weak or partial responses and may not hold up.
# Assay: qHTS Screen for Compounds that Selectively Target Cancer Cells with p53 Mutations: Cytotoxicity of p53ts Cells at the Permissive Temperature; further: nearly all actives have a fitted effect of over 55% in size;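 on activity change, negative = cytotoxicity: 0% = DMSO and -100% = full killing by reference compound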
# Conditions: H1299-p53A138V at 32C, ATP luminescence viability, 24 h; activity change, negative = cytotoxicity: at 46.1 µM (top of the series)
# Method in brief: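 Cells: H1299 p53ts (A138V), 600/well, pre-incubated 16–30 h at 37C. Cpd up to 46 uM, 24 h, 32C. Readout: ATPlite luminescence, 20 min RT. Normalization: DMSO vs tamoxifen 100 uM. AC50 by Hill equation.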
# Potency means the concentration at half of the fitted maximal effect; tags describe the fitted curve by direction and shape.
SMILES,Potency,"activity change, negative = cytotoxicity"
CCOc1ccc(CNC(=O)c2cc3c(=O)n(C)c4ccccc4c3s2)cc1,inactive,–
O=C(c1ccc2c(c1)OCCO2)N(Cc1cccnc1)c1nc2ccc(F)cc2s1,inactive,–
CCCn1c(Nc2nc3ccccc3n2C)nc2ccccc21,"inconclusive: 12.6 µM [cytotoxic, partial curve]",–
CC(C)(C)c1ccc(-c2noc(CCC(N)=O)n2)cc1,"inconclusive: 12.6 µM [cytotoxic, partial curve]",–
Cn1nc(CC(=O)Nc2ccc3c(c2)OCCO3)c2ccccc2c1=O,"inconclusive: 0.251 µM [cytotoxic, full curve, poor fit]",–
c1ccc(C(c2ccccc2)N2CC3(CCNCC3)C2)cc1,inactive,–
CCc1ccc(Nc2cc(C)nc3nc(Cc4ccc(Cl)cc4)nn23)cc1,inactive,–
O=C(Nc1ccc2c(c1)CCC2)c1cnccn1,"inconclusive: 12.6 µM [cytotoxic, partial curve]",–
COC(=O)c1ccc(C2C=C(c3ccc(Cl)cc3)Nc3nc4ccccc4n32)cc1 (stereo not given),active: 8.91 µM,–
Cc1cc2nn(-c3ccccc3)nc2cc1NC(=O)c1cccs1,"inconclusive: 12.6 µM [cytotoxic, single point]",–
CC(C)(C)n1ncc2c(=O)n(CC(=O)Nc3ccc(Cl)cc3)cnc21,inactive,–
CCOc1ccc(NC(=O)CC2C(=O)N(c3ccc(C)cc3)C(=O)N2C2CCCCC2)cc1 (stereo not given),inactive,–
COCCNc1nc(-c2ccc(N(C)C)cc2)nc2ccccc12,active: 12.6 µM,–
CC(C)Oc1ccc(NC(=O)c2ccncc2)cc1,"inconclusive: 20 µM [cytotoxic, partial curve]",–
COc1ccccc1CCn1c(=O)c(-c2ccc(Cl)cc2)nc2cncnc21,inactive,–
COc1ccc(/C=N/O)cc1COc1ccc(NC(C)=O)cc1,inactive,–
O=C(CC1=NCCNC(c2ccccc2)C1)c1ccccc1O (stereo not given),inactive,–
CCCN(CCC)CC(O)Cn1cc(/C=C/C(=O)c2ccc(OC)cc2)c2ccccc21 (stereo not given),"inconclusive: 25.1 µM [cytotoxic, single point]",–
c1ccc(COc2ccc(Nc3ncnc4nc[nH]c34)cc2)cc1,"inconclusive: 25.1 µM [cytotoxic, partial curve, poor fit]",–
COC(=O)CC(=O)CSc1nc2c(cc1C#N)CCCCC2,"inconclusive: 12.6 µM [cytotoxic, partial curve]",–
CCOc1ccc(OCc2cccc(C(=O)N3CCOCC3)c2)cc1,active: 10 µM,–
CCCCNC(=O)c1cccc(-n2cnc3cccnc32)c1C,inactive,–
COC(=O)c1ccccc1NS(=O)(=O)c1cn(C)c(=O)n(C)c1=O,"inconclusive: 20 µM [cytotoxic, single point]",–
CCOc1ccc(C(=O)NCC2CCCO2)cc1 (stereo not given),inactive,–
Cc1conc1NC(c1cccs1)c1ccc2cccnc2c1O (stereo not given),active: 12.6 µM,–

SMILES,Potency,"activity change, negative = cytotoxicity"
COc1cccc([C@H]2Oc3ccc(OC)cc3/C(=N\OC[C@@H](O)[C@@H]3O[C@@H]4OC(C)(C)O[C@@H]4[C@H]3O)[C@@H]2O)c1,–,inactive: -18% [at 9.22 µM]
Cc1ccc(-c2nc3n(n2)Cc2ccccc2-3)cc1,active: 8.91 µM,–
O=C(Nc1cc2ccc(O)cc2oc1=O)c1ccccc1,"inconclusive: 12.6 µM [cytotoxic, partial curve]",–
COc1ccc(CCNC(=O)c2cc(-c3ccccc3OC)on2)cc1OC,"inconclusive: 31.6 µM [cytotoxic, single point]",–
CCOC(=O)N1CCN(C(=O)CN2C(=O)COc3ccc(C)cc32)CC1,inactive,–
O=C(NCC1CCCO1)c1sc(=S)n2c1[nH]c(=O)c1ccc(C(=O)N3CCCCC3)cc12 (stereo not given),inactive,–
Cc1cccc(NC(=O)c2cc3ccccc3o2)c1,active: 12.6 µM,–
Cn1c(COc2ccccc2)nnc1SCCN1CCOCC1,"inconclusive: 12.6 µM [cytotoxic, single point]",–
c1ccc(-c2noc(-c3cccnc3)n2)cc1,"inconclusive: 12.6 µM [cytotoxic, partial curve]",–
Cc1ccc(NC(=O)c2ccc(CNS(=O)(=O)c3ccc4c(c3)C(C)(C)C(=O)N4C)cc2)cc1C,"inconclusive: 20 µM [cytotoxic, single point]",–
CSc1ccc(CCNC(=O)C(C)n2nc(C)c3sc4ccccc4c3c2=O)cc1 (stereo not given),active: 10 µM,–
CCOC(=O)C1CCN(C(=O)c2ccc(NC(=O)c3nsc4ccccc34)cc2)CC1,"inconclusive: 12.6 µM [cytotoxic, partial curve]",–
COc1cc(NC(=O)CCS(=O)(=O)c2nc(-c3ccc4c(c3)OCO4)cc(C(F)(F)F)n2)cc(OC)c1OC,–,inconclusive: -89% [cytotoxic]
Oc1ccc(-c2nc(-c3ccccc3)c(-c3ccc(Br)cc3)[nH]2)cc1,"inconclusive: 25.1 µM [cytotoxic, single point]",–
CCOc1ccc(-c2nnc(-c3ccco3)o2)cc1,active: 10 µM,–
Fc1ccc(Nc2nc(SCc3ccccc3F)nc3ccccc23)cc1,"inconclusive: 25.1 µM [cytotoxic, single point]",–
COc1ccc(NC(=O)Nc2nccs2)cc1,"inconclusive: 12.6 µM [cytotoxic, partial curve]",–
CCc1ccc(S(=O)(=O)Nc2ccc3[nH]c(=O)sc3c2)cc1,inactive,–
Cn1c(=O)c(-c2ccc(Cl)cc2)nc2cnc(N3CCOCC3)nc21,inactive,–
CCOc1ccc(NC(=O)Cn2c(=O)n(-c3ccccc3)c(=O)c3ccc(C(=O)NCc4ccc5c(c4)OCO5)cc32)cc1,"inconclusive: 31.6 µM [cytotoxic, single point]",–
COC(=O)c1cc2c([nH]c3ccccc32)c(C)n1,"inconclusive: 31.6 µM [cytotoxic, single point]",–
OC(CN=c1sc2ccccc2n1CC(O)COc1ccccc1)COc1ccccc1 (stereo not given),"inconclusive: 35.5 µM [cytotoxic, single point]",–
COc1ccc2nc(NCc3ccccc3)[nH]c2c1,"inconclusive: 10 µM [cytotoxic, partial curve]",–
CCOc1ccccc1NC(=O)c1ccc2c(Cl)c3c(nc2c1)CCC3,"inconclusive: 3.16 µM [cytotoxic, full curve]",–
CC(C)(C)c1ccc(C(=O)Nc2ccc3c(c2)CCCN3C(=O)c2cccs2)cc1,"inconclusive: 1.26 µM [cytotoxic, full curve]",–

SMILES,Potency,"activity change, negative = cytotoxicity"
CCc1ccc(NC(=O)Cn2c(=O)n(CCCCC(=O)NCc3ccc4c(c3)OCO4)c(=O)c3ccccc32)cc1,"inconclusive: 0.631 µM [cytotoxic, full curve, poor fit]",–
O=C(Cn1nnc(-c2ccc(N3CCOCC3)cc2)n1)OC1CCCCC1,"inconclusive: 12.6 µM [cytotoxic, partial curve]",–
O=C(O)CCSc1nnc(-c2ccc3c(c2)OCO3)o1,"inconclusive: 15.8 µM [cytotoxic, partial curve]",–
CC(=O)c1cccc(NC(=O)c2nc(-c3ccccc3)n(-c3cccc(Cl)c3)n2)c1,inactive,–
CCc1ccc(NC(=O)C(=O)NCC(c2cccnc2)N2CCN(c3ccc(F)cc3)CC2)cc1 (stereo not given),inactive,–
COc1cc(C(=O)OCc2cc(=O)n3nc(C4CCCCC4)sc3n2)cc(OC)c1OC,inactive,–
O=C(CC1(O)C(=O)N(CCc2ccccc2)c2ccc(Br)cc21)c1ccc(F)cc1 (stereo not given),"inconclusive: 31.6 µM [cytotoxic, single point]",–
CC(C)=CC(=O)Nc1ccc2c(c1)OCO2,active: 10 µM,–
CSc1nc(=O)c2c(n1C)NC(=O)CC2c1ccccc1OC(C)C (stereo not given),"inconclusive: 3.16 µM [cytotoxic, single point]",–
CC(=O)c1ccc(S(=O)(=O)Nc2ccc(-c3ccc(N4CCCCCC4)nn3)cc2)cc1,"inconclusive: 5.01 µM [cytotoxic, partial curve]",–
CN(C)c1ccnc(-c2cccc(NS(C)(=O)=O)c2)n1,"inconclusive: 15.8 µM [cytotoxic, single point]",–
COC(=O)Nc1ccc2c(c1)ncn2C1CCCCC1,"inconclusive: 15.8 µM [cytotoxic, single point]",–
O=C(CCC(=O)N1CC2CCCN2c2ccccc21)NCc1cccc(Cl)c1 (stereo not given),"inconclusive: 25.1 µM [cytotoxic, single point]",–
Cc1cc2cc(CN(Cc3ccc4c(c3)OCO4)C(=O)c3cnccn3)c3nnnn3c2cc1C,inactive,–
COc1cccc(-c2cc(NCc3cccs3)ncn2)c1,active: 25.1 µM,–
O=C(NCC(c1cccnc1)N1CCN(c2ccccc2F)CC1)c1ccccc1 (stereo not given),"inconclusive: 12.6 µM [cytotoxic, single point]",–
O=C(Nc1ccc2c(c1)oc1ccccc12)N1CCOCC1,"inconclusive: 12.6 µM [cytotoxic, partial curve]",–
O=C(NCCc1ccccc1Cl)c1ccc2c(c1)nc1n2CCOC1,active: 15.8 µM,–
O=c1c(-c2ccc(Cl)cc2)nc2cnc(N3CCNCC3)nc2n1Cc1cccs1,"inconclusive: 25.1 µM [cytotoxic, single point]",–
COCc1nn2cc(-c3ccc(C)cc3)nc2s1,active: 10 µM,–
COC(=O)c1c(C#N)c(N)nc2c1CCC2,inactive,–
Cc1ccccc1Nc1nn2c(=O)c3ccccc3nc2s1,"inconclusive: 15.8 µM [cytotoxic, partial curve]",–
Cc1cc(F)ccc1S(=O)(=O)Nc1ccc2oc3c(c2c1)CC(C)CC3 (stereo not given),"inconclusive: 31.6 µM [cytotoxic, single point]",–
COc1ccc(N2CCN(C(c3ccccc3)c3sc4nc(-c5ccco5)nn4c3O)CC2)cc1 (stereo not given),inactive,–
Clc1ccc(OCc2nn3c(C4CCCCC4)nnc3s2)cc1,inactive,–
